# Paper PMC4336329 (PLoS ONE, 2015)
# Screen size: about 310,000 compounds; about 14,000 (4.5%) showed an effect of 50% or more. The effect is printed as a negative number. Some of the results follow.
# Target: human ether-à-go-go-related gene (hERG) potassium channel (human, UniProt Q12809)
# Experiment: primary screen, population patch clamp on CHO cells stably expressing hERG
# 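Further: peak tail current of the secondary pulse compared with the same well before compound.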
# Sequence of human ether-à-go-go-related gene (hERG) potassium channel (Q12809 whole entry, looked up): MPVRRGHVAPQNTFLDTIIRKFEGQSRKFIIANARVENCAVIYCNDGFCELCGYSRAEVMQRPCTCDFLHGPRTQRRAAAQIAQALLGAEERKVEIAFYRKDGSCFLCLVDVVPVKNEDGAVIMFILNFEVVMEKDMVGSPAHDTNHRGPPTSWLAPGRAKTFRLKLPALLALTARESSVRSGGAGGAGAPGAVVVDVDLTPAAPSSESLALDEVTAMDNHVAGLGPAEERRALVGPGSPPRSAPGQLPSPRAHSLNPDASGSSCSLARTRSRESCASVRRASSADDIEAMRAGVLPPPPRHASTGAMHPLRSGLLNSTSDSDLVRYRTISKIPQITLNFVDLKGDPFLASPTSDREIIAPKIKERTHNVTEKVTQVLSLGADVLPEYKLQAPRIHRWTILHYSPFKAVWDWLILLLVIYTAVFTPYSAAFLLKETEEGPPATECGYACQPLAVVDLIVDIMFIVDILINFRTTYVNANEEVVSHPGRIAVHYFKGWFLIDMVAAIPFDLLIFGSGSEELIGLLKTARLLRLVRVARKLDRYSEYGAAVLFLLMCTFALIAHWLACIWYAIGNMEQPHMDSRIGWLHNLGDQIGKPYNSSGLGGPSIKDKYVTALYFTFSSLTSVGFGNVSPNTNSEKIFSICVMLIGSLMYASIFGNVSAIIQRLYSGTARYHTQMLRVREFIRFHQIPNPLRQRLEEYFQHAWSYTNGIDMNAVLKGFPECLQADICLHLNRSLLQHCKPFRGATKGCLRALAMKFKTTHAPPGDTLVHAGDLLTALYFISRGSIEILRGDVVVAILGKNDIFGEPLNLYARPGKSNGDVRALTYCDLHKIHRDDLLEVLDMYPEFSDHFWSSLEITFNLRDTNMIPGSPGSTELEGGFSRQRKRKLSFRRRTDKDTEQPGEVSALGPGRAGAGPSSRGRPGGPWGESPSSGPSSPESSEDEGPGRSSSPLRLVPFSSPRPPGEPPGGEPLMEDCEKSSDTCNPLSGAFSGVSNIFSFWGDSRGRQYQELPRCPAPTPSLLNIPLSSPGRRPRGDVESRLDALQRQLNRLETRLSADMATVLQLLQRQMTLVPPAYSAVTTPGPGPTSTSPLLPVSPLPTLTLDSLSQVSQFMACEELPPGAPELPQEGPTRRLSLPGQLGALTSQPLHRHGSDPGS
row,Compound,"hERG current change (%, negative = inhibition) at 10uM [%]"
1,CC1(C)CC(=O)C2=C(C1)NC1=C(C(=O)c3ccccc31)C2c1ccccc1 (stereo not drawn),-12.5
2,CCCCN1C(=O)C(O)(CC(=O)c2ccco2)c2cc(Br)ccc21 (stereo not drawn),-7.03
3,COCOc1ccc(-c2cc(=O)c3c(O)cc(OCOC)cc3o2)cc1,2
4,Cc1cc(C)nc(SCC(=O)N/N=C/c2cccnc2)n1,0.457
5,Cc1ccc(NC(=O)CSc2nnc(-c3ccoc3C)n2CCCN(C)C)cc1Cl,-69.3
6,CSc1nc(-c2ccco2)nn1C(=O)c1cccs1,3.47
7,COC(=O)C1=C(C)C(c2ccc(OC)cc2OC)NC(=O)N1 (stereo not drawn),13.1
8,COc1cc2ccccc2cc1C(=O)Nc1sc2c(c1C(N)=O)CCN(C(C)C)C2.Cl,-19.3
9,COc1ccc(OCC(=O)N2CCN(c3cccc(C(F)(F)F)c3)CC2)cc1,-42.6
10,Cc1n[nH]c(=O)c2ccccc12,19
11,C=CCNC(=S)Nc1c(N)n(C)c(=O)n(C)c1=O,9.2
12,COc1ccc(S(=O)(=O)N2CCCC2CNC(=O)C(=O)NCc2ccc3c(c2)OCO3)cc1 (stereo not drawn),-21.9
13,COc1cc2ncnc(NCc3ccco3)c2cc1OC,-4.53
14,Clc1ccc(OCCn2cnc3ccccc32)c(Cl)c1,-14.8
15,O=C(Nc1cccc(S(=O)(=O)NC2=NCCCCC2)c1)c1cc(-c2ccncc2)nc2ccccc12,3.8
16,CCOC(=O)CC1=C(C(=O)OCC)C2(C(=O)N1CC(=O)OC)C(C#N)=C(N)Oc1ccccc12 (stereo not drawn),13.5
17,Nc1cnc(-c2ccccc2)nc1Cl,11.1
18,O=C(COc1ccc(Cl)cc1)N1CCN(S(=O)(=O)c2ccc(Cl)cc2)CC1,-11.9
19,Cc1ccccc1CSc1nn2c(=O)c(C)nnc2s1,0.612
20,Cc1ccc(NC(=O)CN(C)C(=O)CSc2ccc3c(c2)OCCO3)cc1,-15.9
21,O=C(COc1ccccc1)NCC(c1cccs1)N1CCOCC1 (stereo not drawn),-16.6
22,Cc1ccc2nsnc2c1S(=O)(=O)NC1CC1,-13.6

row,Compound,"hERG current change (%, negative = inhibition) at 10uM [%]"
1,COc1ccc(C=O)cc1CSc1ncccc1C(=O)O,8.88
2,O=C1C(Cl)=C(Nc2cccc(O)c2)C(=O)N1Cc1ccccc1,-62.4
3,Fc1ccc2[nH]c3c(N4CCSCC4)ncnc3c2c1,-1.46
4,COc1ccc(CNC(=O)c2cc(C)nn2-c2ccccc2)cc1,-13.9
5,Cc1cccc(NC(=S)N2CCN(S(C)(=O)=O)CC2)c1,-2.24
6,CN(C)c1ncc(CN2CCC(CO)(CCCc3ccccc3)CC2)s1,-51.3
7,CCOC(=O)NC(C(F)(F)F)(C(F)(F)F)P(=O)(c1ccccc1)c1ccccc1,17.7
8,N#Cc1c(-c2cccs2)cc(-c2ccccn2)nc1N,-2.64
9,Cc1cccc(Nc2nc(NCc3ccco3)c3ccccc3n2)c1.Cl,-12.2
10,Cc1cccc(/C(N)=N/OC(=O)CCCN2C(=O)c3ccccc3C2=O)c1,-10.7
11,CC1(C)CC(=O)C(C=Nc2ccncc2)=C(O)C1,13.4
12,NC(=O)COC(=O)c1cccc2c1-c1ccccc1C2=O,-30.9
13,COc1ccc(-c2sc3ccc(N4CCOCC4)cc3c2C#CC(C)(C)O)cc1,18.6
14,CCN(CC)Cc1c(O)ccc2c(=O)c(-c3ccccc3Cl)coc12,-22.4
15,COC(=O)CCC(=O)N1CCOCCOCCN(C(=O)CCC(=O)OC)CCOCCOCC1,1.93
16,COc1ccccc1NC(=O)CSc1ncn[nH]1,-2.97
17,O=C(COc1ccccc1O)Nc1ccccc1Cl,-4.32
18,COc1ccc(S(N)(=O)=O)cc1C(=O)NCC(C)(C)N1CCCCC1,-15.2
19,O=C(COc1ccc(Cl)cc1)Nc1cc(NC(=O)COc2ccc(Cl)cc2)cc(C(=O)O)c1,6.4
20,COc1nc(NCCc2ccc(OC)c(OC)c2)nc(NC(C)(C)CO)n1,4.03
21,COc1ccccc1Nc1cc2cc(Br)ccc2c(=O)[nH]1,25.2
22,O=C(NCCCN1CCN(c2ccccc2)CC1)Nc1ccccc1C(F)(F)F,-49.3

row,Compound,"hERG current change (%, negative = inhibition) at 10uM [%]"
1,Cc1ccc(S(=O)(=O)N(C)C)cc1NC(=O)c1ccccc1SCC(=O)N1CCCC1,-5.32
2,COc1ccc([N+](=O)[O-])cc1NCc1cccnc1,-22.7
3,CC(NC(=O)c1ccccc1NS(=O)(=O)c1ccc(CCC(=O)O)cc1)c1ccccc1 (stereo not drawn),12.5
4,N#CCN1CCC(c2cc(-c3ccco3)n[nH]2)CC1,11.8
5,CCOc1ccc(S(=O)(=O)Nc2cccc(C(=O)NCC(c3ccco3)N(C)C)c2)cc1 (stereo not drawn),-21.5
6,O=C(CCN1C(=O)/C(=C/c2ccc3c(c2)OCO3)SC1=S)Nc1cccc(C(=O)O)c1,17
7,Cn1c(SCC(=O)Nc2ccc(F)cc2)nc2c(c1=O)SCC2,-6.44
8,Cc1cc(Br)ccc1NC(=S)N1CCOCC1,12.5
9,Cc1ccc(Nc2ccc(C(N)=O)cc2[N+](=O)[O-])cc1C,8.9
10,CCOc1ncccc1C(=O)OCc1ccc(Cl)cc1,-20
11,CC1(C)CC(=O)C(C2(O)C(=O)N(Cc3ccccc3)c3ccccc32)CO1 (stereo not drawn),-6.27
12,O=C(/C=C\c1ccc(-c2cccc([N+](=O)[O-])c2)o1)N1CCOCC1,-10.2
13,CC[C@H]1OC(=O)[C@H](C)[C@@H](O[C@H]2C[C@@](C)(OC)[C@@H](O)[C@H](C)O2)[C@H](C)[C@@H](O[C@@H]2O[C@H](C)C[C@H](N(C)C)[C@H]2O)[C@](C)(O)C[C@@H](C)[C@@H]2N[C@@H](COCCOC)O[C@H]([C@H]2C)[C@]1(C)O,16.3
14,CN(C(=O)COC(=O)Cc1c[nH]c2ccccc12)c1c(N)n(Cc2ccccc2)c(=O)[nH]c1=O,-6.09
15,Cc1cc(-c2nnc(SCC(=O)c3ccc(Cl)cc3)o2)no1,-28.4
16,CC(C(=O)N1CCC(C(N)=O)CC1)N(c1ccc(Oc2ccccc2)cc1)S(C)(=O)=O (stereo not drawn),-1.01
17,Cn1c(=O)c2c(nc(SCC(=O)NCC3CCCO3)n2Cc2ccc(F)cc2)n(C)c1=O (stereo not drawn),-41.6
18,CCOc1ccccc1-n1c(O)c(C=NCCCN(CC)CC)c(=O)[nH]c1=O,6.17
19,COc1ccccc1C(C)NC(=O)c1ccc(C)o1 (stereo not drawn),2.9
20,CCOC(=O)C1CCCN(/C=C2\SC(=S)N(CC)C2=O)C1 (stereo not drawn),-21.8
21,C=CCN1C(=O)/C(=C/c2cc(C)n(-c3cccnc3)c2C)C(=O)NC1=S,16.9
22,COCC(=O)N/N=C/c1c(C)[nH]n(-c2ccccc2)c1=O,14

row,Compound,"hERG current change (%, negative = inhibition) at 10uM [%]"
1,O=C1C=C(c2cccc(Br)c2)C[C@@H](c2ccc3c(c2)OCO3)C1,1.27
2,O/N=C/c1ccc2cccc(O)c2n1,-21.5
3,O=C(NCC(c1cccs1)N1CCOCC1)c1cc(=O)[nH]c2ccccc12 (stereo not drawn),1.68
4,Cc1cc(=O)oc2cc(NC(=O)c3cccc(Br)c3)ccc12,18.2
5,CC1(C)CC(=O)C=C(c2ccc(F)cc2OCc2ccccc2)C1,15.1
6,O=C(COC(=O)/C=C/c1ccc(Cl)cc1)NC1CCCC1,-2.27
7,CCc1nc(Nc2ccc(OC)cc2OC)c2oc3ccccc3c2n1.Cl,19.5
8,COC(=O)c1cc(S(=O)(=O)NCC2CCN(Cc3ccc(F)cc3)CC2)cn1C,-19.6
9,CCCCCCOC(=O)C(C#N)c1nc2ccccc2nc1N1CCCCC1 (stereo not drawn),1.37
10,COC(=O)CNC(c1ccccc1)c1cc(Br)ccc1NS(=O)(=O)c1ccccc1 (stereo not drawn),-2.57
11,NS(=O)(=O)c1ccc(CCNC(=O)NC2(C(F)(F)F)Oc3ccccc3O2)cc1,6.93
12,Cc1noc(C)c1S(=O)(=O)N1CCN(c2ccc(Cl)cc2)CC1,-6.26
13,Cc1ccnc(NC(=O)Cn2c(=O)oc3ccccc32)c1,-0.0688
14,CCCNC(=O)c1ccccc1NC(=O)CN(c1ccccc1OCC)S(C)(=O)=O,4.75
15,Cc1nc(NC(=O)c2ccccc2[N+](=O)[O-])sc1C(=O)N(C)C,8.96
16,N#Cc1ccc(C(=O)N2CCN(C(=O)C3CCCO3)CC2)cc1 (stereo not drawn),-0.959
17,c1ccc2sc(NC3=NCN(C4CCCCCC4)CN3)nc2c1,-9.17
18,Cc1ccc(S(=O)(=O)c2cc3c(=O)n4ccccc4nc3n(CCCN3CCOCC3)c2=N)cc1C,-36.8
19,O=C(c1cc(COc2ccc(F)cc2F)on1)N1CC[C@@H]2CCCC[C@H]2C1,-12.1
20,COc1ccc(C2=COc3ccccc3C(=O)N2)cc1,-3.93
21,CCOC(=O)CN(C(=O)Cn1nnc2ccccc21)C(C(=O)NCCOC)c1ccccc1C (stereo not drawn),8.58
